According to PMC12136788:
This is one part of the list.

B1: chr10:74136666:74136778:-|CDS|ENSG00000185009|unk|total|mutant (ssRNA)
RNA: GGGAGUUCUACAGUCCGACGAUCUUCAGAGGCUGCAAUUAAGGAUAAUGUGGUCACCGUAUAUGAACUCUCCGAAGAAAUGUCCGACAAUGGAUUUCCACUGGCUACCGAAUCUAACAUUUUGAAAGAAUUGAUUAAACCACCCAACAGAGGAUUGAGCAUCA
B2: chr1:77728514:77728621:-|CDS|ENSG00000077254|unk|total|mutant (ssRNA)
RNA: GGGAGUUCUACAGUCCGACGAUCAGAUCCGCAAACCAUAACCACUGAGGAGACAAUGGAAGAAGACAAGAGCCAGUCGGAUGCCGAUUUUCAGUCUUGUGAAUCUUGCCGCAACAGUGACCGAGCAGAAAAUGAAAAUGGCUCCAACAGAGGAUUGAGCAUCA
B3: chrX:50586795:50596694:-|three_prime_utr|ENSG00000158352|control|control|control (ssRNA)
RNA: GGGAGUUCUACAGUCCGACGAUCAGCACUCUGCCACAGCAUCCCUGCCCAGCCAUGUGGGAAGUGCUUUCAAUCUUCUUUGUUAGCAGUUUCUCAGCAAGUAGAUAGCAAUUAGCAGUUUGUUCCAGCCCUCUACCCUGGAUGCAACAGAGGAUUGAGCAUCA
B4: chr19:13095865:13096029:+|3pUTR|ENSG00000008441|msi1|total|mutant (ssRNA)
RNA: GGGAGUUCUACAGUCCGACGAUCCCGCCCCCCACGUGGCCACUUUUCUCUGGAUUUCCGCUGUAAUGUCUUUACUCUUUAUUCCGGGGUGGGGCAUUCAUUGUUUGGGUCUUUUGCUGUUGGAAUGGGAACUCCUCCUCCAUUCAACAGAGGAUUGAGCAUCA
B5: chr5:76733371:76733472:+|CDS|ENSG00000181104|msi1|FALSE|unique (ssRNA)
RNA: GGGAGUUCUACAGUCCGACGAUCGAUCCCAGCAGUUAUAACAGCAGUGGGCAGUUGAUGGCAAGUAAAAUGGAUACCUGCUCUAGUAACCUGAAUAACAGCAUAUACAAAAAGCUGUUAACUUAGGAAAAGGGACUGCUGGGACAACAGAGGAUUGAGCAUCA
B6: chr17:77200548:77200649:+|CDS|ENSG00000129657|msi1|FALSE|bound_elsewhere (ssRNA)
RNA: GGGAGUUCUACAGUCCGACGAUCUAUUGACAAAGCCAGAGAGAUCAUGUGUCAGUCUUUGACGUGGAGAAAGCAGCAUCAGGUAGACUACAUUCUUGAAACCUGGACCCCUCCUCAGGUCCUUCAGGAUUACUACGCGGGAGGCAACAGAGGAUUGAGCAUCA
B7: ENSG00000136451:be:win_1951|3pUTR|ENSG00000136451|bound_else_gene|NA|bound_elsewhere_windowed (ssRNA)
RNA: GGGAGUUCUACAGUCCGACGAUCCAAGGUGGAUGGCUGAUUUUAACCUGAAAUUUUAAAUCCACAGAUUGAGAGCUAGUGUAGAAUUGUCUGUGUUUAUUGUUUUUAUGAGUAAAUACAUGCAUUGUCAUAAUAAAAUGCAUUCAACAGAGGAUUGAGCAUCA
B8: chrX:154027874:154027956:-|3pUTR|ENSG00000169057|msi1_unk|FALSE|overlapping (ssRNA)
RNA: GGGAGUUCUACAGUCCGACGAUCUGGUUAGAAGUGAGGGAGUUUGCCCCGUUCUGUUUGUAGAGUCUCAUAGUUGGACUUUCUAGCAUAUAUGUGUCCAUUUCCUUAUGCUGUAAAAGCAAGUCCUGCAACCAAACUCCCAUCCAACAGAGGAUUGAGCAUCA
B9: chr17:7460970:7461071:-|3pUTR|ENSG00000174282|msi1|total|mutant (ssRNA)
RNA: GGGAGUUCUACAGUCCGACGAUCGGAUGGAGAAGGGAAUCUACUUUCUCCCUGUUUUUUUUUCCUGAUGGUUUCUCCCAGACCCGACCAAACCGCCAGAAAAAUGACCGGGGUCGGAUGGGUGGGUAAGCCCAGGAUUUGCACCAACAGAGGAUUGAGCAUCA
B10: chr14:73713276:73713377:-|CDS|ENSG00000176903|unk|FALSE|unique (ssRNA)
RNA: GGGAGUUCUACAGUCCGACGAUCGGGCAAAGGAGGGGUCUGGAAAGUGUUAUUUAAGCCCCCAACUUCUGAUGCUGAAUUUUUAGAAAGAUUGCACCUCUUCCUAGCUAGAGAGGGGUGGACCGUGCAAGAUGUUGCCCGUGUCAACAGAGGAUUGAGCAUCA
B11: chr6:111694403:111694505:-|CDS|ENSG00000010810|unk|FALSE|bound_elsewhere (ssRNA)
RNA: GGGAGUUCUACAGUCCGACGAUCAAUGGCUUACAUCGAGCGCAUGAAUUAUAUCCAUAGAGAUCUGCGAUCAGCAAACAUUCUAGUGGGGAAUGGACUCAUAUGCAAGAUUGCUGACUUCGGAUUGGCCCGAUUGAUAGAAGACAACAGAGGAUUGAGCAUCA
B12: ENSG00000079335:stop:overlap|stop_codon|ENSG00000079335|stop_codon|NA|stop_codon (ssRNA)
RNA: GGGAGUUCUACAGUCCGACGAUCUUGGUGGAAAUCUUUCAAAAACACAAAACAUGGAACGAUUUGGAGAGGUAAGUUUUCCCUAGGAGAUUCUAUCUUCUUAAAACUGAUGUUCUGCAUUUGUUUCUCAGUUGGACCUAUAUACAACAGAGGAUUGAGCAUCA
B13: chr12:118033712:118033825:-|3pUTR|ENSG00000176871|unk|total|mutant (ssRNA)
RNA: GGGAGUUCUACAGUCCGACGAUCCCUCCGCUGGGAACGAUGGCUUCUGCCCCGUACCUAUCCUUGUGUUUCUGAUGCAGUGGCCGCAUUGGUUCAAGUUCUCUCCUGCUGUGGUCAGAGUUGCUUCGAUGUUGGCCAAGUGCUCAACAGAGGAUUGAGCAUCA
B14: chr12:49764829:49764866:+|3pUTR|ENSG00000139644|msi1_unk|FALSE|overlapping (ssRNA)
RNA: GGGAGUUCUACAGUCCGACGAUCACUUUUAAAGAAAAUACCUAACAGAUUUUUAAUAUAGUUAUCUCUACCACUUUCUUUUCUAGUUUCUUGAUUUUCAGCUCAGGCUGCAUUCUAACUCAUACUGUGAAGACAAAGGUGUUUCAACAGAGGAUUGAGCAUCA

biological target: T1, UNK ZnF1-6 (called full-length) (human, UniProt Q9C0B0 30-357); test: nsRBNS (natural sequence RNA bind-n-seq); RBNS binding buffer (assumed for nsRBNS): 25 mM Tris pH 7.5, 150 mM KCl, 3 mM MgCl2, 0.01% Triton X-100, 500 ug/ml BSA, 20 U/ml SUPERase-In, 4 C; UNK is unkempt and MSI1 is Musashi-1; names of the RNAs are library labels; protein concentration not given here; high values mean tight binding
T1 sequence: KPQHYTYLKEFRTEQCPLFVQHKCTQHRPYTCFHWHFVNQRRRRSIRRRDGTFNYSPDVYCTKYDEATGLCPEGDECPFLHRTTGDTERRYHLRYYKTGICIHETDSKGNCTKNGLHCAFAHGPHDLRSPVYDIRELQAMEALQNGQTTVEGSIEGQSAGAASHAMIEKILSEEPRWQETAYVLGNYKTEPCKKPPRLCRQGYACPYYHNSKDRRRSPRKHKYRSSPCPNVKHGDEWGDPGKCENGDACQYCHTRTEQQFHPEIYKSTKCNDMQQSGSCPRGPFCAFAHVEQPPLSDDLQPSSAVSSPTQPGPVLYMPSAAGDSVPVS

Row | Binder | binding signal
1 | B1 | 0.434 enrichment R
2 | B2 | 0.458 enrichment R
3 | B3 | 1.24 enrichment R
4 | B4 | 0.901 enrichment R
5 | B5 | 0.621 enrichment R
6 | B6 | 0.592 enrichment R
7 | B7 | 0.482 enrichment R
8 | B8 | 0.635 enrichment R
9 | B9 | 0.495 enrichment R
10 | B10 | 0.861 enrichment R
11 | B11 | 0.509 enrichment R
12 | B12 | 1.83 enrichment R
13 | B13 | 0.583 enrichment R
14 | B14 | 1.38 enrichment R
